Values marked as one replicate rest on one cluster of the flow cell; about a third of the high ones do not repeat.
Tested on: ATP
Assay: switch fluorescence ratio, 500 uM ATP over buffer (Cy3 cluster intensity, sum of 5 cycles each) (fold (ratio)); higher = stronger signal-on switching upon ATP binding; sequences stand for … in TCGTCGGCAGCGTCAGATGTGTATAAGAGACAGTTTTTTTTTTTTTTTTTTTTTTTTT…TC
Conditions: aptamer strand: ATP DNA aptamer (quencher-CACCTGGGGGAGTATTGCGGAGGAAGG + anchor), 100 nM annealed; ATP concentration: 500 uM; one replicate
How it was run: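 Five buffer/ATP imaging cycles were run on Cy3-labelled switching-strand clusters on a modified Illumina MiSeq flow-cell, with NaOH stripping and re-annealing between cycles. In each cycle, clusters annealed to 100 nM quencher-labelled ATP aptamer were imaged in selection buffer, then after 15 min with 500 uM ATP at 22 °C. Per cluster, the fluorescence ratio is summed target-cycle over summed buffer-cycle Cy3 intensity, averaged per switch-domain sequence. Only clusters within 100-1000 RFU were kept.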
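Also: ATP exposure 15 min at 22 °C before imaging.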

Sequence	switch fluorescence ratio
TTCTTGCCGT	1.01
ACTTCGCCTG	1.1
ATGGAGATGC	1.05
CCCTACCAGT	1.05
TGCTTTATTT	1.04
CAATTTTAAA	0.978
ATGCCTAAGT	0.978
CGGATTTGCC	0.989
CTCAGTTGCG	0.999
GAAACGTGGG	0.98
TAGCACTACG	1.22
TAAAGAGCAA	1.48
GCCATGCGGC	0.991
GCCCTGACAA	1.03
CGAAATGCTA	1.24
GGATTAGGAT	0.978
TATTAGTGAC	0.996
CGCGGAGTAA	1.33
AAGTACTGCG	1
GATTTGAAAT	0.946
TTACTTGTGT	0.931
ATCCACGGG	1.13
GGGTACTGGA	1.02
ACGAGACCTT	1.29
TGCCCAGGCG	2.49
GGTCCCAGTG	1.23

Sequence	switch fluorescence ratio
AAGATTCTTG	0.988
AGCTTGGTTC	1.03
CGCATCTCGA	1.12
GATAGAAATC	0.986
ACTGGTTTGT	1.03
GCTGGGTCAC	1.01
TGGGTCGGTA	0.994
TTTACTTGCT	1.03
ATGTTACTTC	1.02
TCTTCTTTTG	1.03
CGACAGCCGA	1.09
TAATGGGCAA	1.06
ACCCCGACTA	1.34
TCGAAGATC	1.01
GAGGGTAGGA	0.997
CATAAAGACA	0.997
TCGGGATTGC	1.07
CCCAGTATCA	1.18
GGCATGCCTG	0.992
AAACAGCTCG	1
AGTGGAGGTC	1.05
TGTTAGGG	1.01
ATAAAAACAC	1.01
TGCACATTAG	1.06
CGGCCACGCT	0.999
ATCATATACT	1.07

Sequence	switch fluorescence ratio
TGAATGGGCG	0.937
CCGGCGAGGT	1.03
ATAGGATGA	0.991
CTTTGGCCTG	0.989
ATGAGTAACC	0.961
GTTTGACATG	1.13
AGCCATCCG	1.01
ATTAGGAACG	0.95
AGTAAACAGT	1.02
AAGACGTGCC	1.02
ACTCATGAGG	1
TCGGAAGGCC	1.04
TACTTAGTAC	1.07
TTTTCAACGT	1
GTGTAGCGCA	0.995
TGATCGACCA	0.987
TGAGGGATG	0.989
CATAGTGGTT	0.977
ACAGGGGAGG	1.1
TGGGATGGCA	0.948
ATAACATGG	0.986
TTGAATACCA	1.03
CTGATTCATG	0.976
ACGTTAACGA	1.04
TGGTCAAGC	0.981
GCCGTCTATC	0.989

Sequence	switch fluorescence ratio
GGTGGTCCCC	1.03
ACCTACTGCG	1.18
TGGCTGGTTA	0.957
GGATCGCCGT	0.94
CACTTTGCAG	1.02
GAGAAGGGCG	1.03
TATTAGAAT	1.01
GCGGTACGT	0.993
TATAAGGGT	0.968
CTATTTTGAA	0.96
GCGGGCGGTG	1.04
CAGCGCTGTT	1.04
AAACAGACGG	1.13
TAATTAGCTT	1.01
CTAGTTTGT	0.994
CCTAGGGTCC	1.04
CGTCGTGAGG	1.01
AATATCGGGG	0.996
AATCGTAGAA	1
AAGACTAATT	0.995
CAAATTTGAG	1.01
TTCCAGAGCG	1.57
GGCAAATAAC	1.05
GAACTTACGT	1.11
TGTTTGAGTA	0.998
AGCCTCTTAC	1.05

Sequence	switch fluorescence ratio
AAAAATCAAC	1.01
GAATGGCGGC	1.03
TTTGCGGCG	1.01
CCAACAAATT	1.04
AGGGGGCCCA	1.02
TTTGGACTAA	1.03
TGTGTGGTCT	1.06
TCCATTACAC	1.03
AAGTAATTTT	0.971
CGCCGTTGTT	0.975
ATGAACCAGT	1.03
TCACGCCTAT	1.03
TTGCATACCA	1
CTGCCCGAAT	0.956
GAGCGCTAC	2.44
GGCGGGGGAT	1.01
TCTCTAGT	1.06
GGTGACCCGG	0.996
CTGAGTTGAA	0.981
TGGGGTCAA	1.56
TAACTATAGT	0.963
AACATGTTTT	1.05
CTGTGATACG	1.85
TGGCCCACTC	1.02
TCATAGCTTT	1.02
TGGCACCAGG	1.8

Sequence	switch fluorescence ratio
TATTATCCCT	0.99
TTGGTTGATG	0.967
CTATGTGTTT	1.03
CTTTGGAAA	0.944
TGGCAAAGAA	1.01
GTGACGTGTG	1.03
TAGTGCGCTT	1.01
GGGGTCTAG	1.01
ATTCTCTGT	1.02
AGCTATCCTG	1.01
TTAGACTGTG	1.04
GATGTGTCGA	0.964
GAGCGCAGGT	1.07
TTGTTACTGT	1.01
ATTATTGATC	1.02
ATGGTAAAAC	1.04
GCTGATCTAG	1.01
ACTAATTAAT	1.06
ATTTTCAGC	0.998
GGATGTGGCA	0.994
CATGCATTAG	1.12
TAGCTTTGGT	0.976
ATGTAGTTGC	1.02
GCACGTAAAA	1.06
ATCGCTGAGC	1.03
GATGCCAGA	1.04

Sequence	switch fluorescence ratio
CGCACGTACA	1.68
AGCTAGATTA	1.01
TTTCAGGAGC	2.03
CAGCCCGGCT	0.998
AGGAAAGAGA	1.02
TATGCAGTAT	1.1
ATATTCTTCT	0.984
CGCACCGGG	0.981
GTGGAAATTT	1.09
GAAGAATTTT	1.01
CTCGCGCTTC	1.98
GAGTATCACC	0.987
ACGATCCTGA	1
TTGTAATACC	1.21
TCCTGTCGAT	1.04
AACGGCGTAT	1.01
CTTAATATGG	1.08
TGCAAAGCAC	0.986
ACCGACATAT	1.26
GTTTGGAAAC	1.06
GATTAATAGT	1.02
AAAGTTCATT	1.01
TAGCAGACTT	1.01
CGATGTTA	0.963
CAAGTTTGAC	1.02
TCCTAACCCT	1.08

Sequence	switch fluorescence ratio
CAATTCCGT	1.15
ATGACTACTT	0.964
TTCCCCGACA	1.57
TACGGGCGTA	1.05
TGGCCTAAAT	1.05
GTGTTTGGGC	1.01
ACTCTCCCTC	1.23
ATTAATCGC	0.996
GTGAACGT	1.02
TTCGTTTT	1.04
ACGAGATACT	1.55
TAGCAGCCGT	1.02
ACCGGATAGT	1
GACTGCTCTA	1.02
CGATTGGCCT	1.04
CTAACGTTGT	1.01
AGTCACAAG	1.02
ATAGCGTGG	1.01
AAGGCCAGGG	1.04
